{"source": "PubChem BioAssay (Tox21)", "key": {"[1]": {"target": "Nuclear receptor subfamily 1 group I member 3 (Homo sapiens) (UniProt Q14994)", "sequence (Q14994 whole entry, looked up)": "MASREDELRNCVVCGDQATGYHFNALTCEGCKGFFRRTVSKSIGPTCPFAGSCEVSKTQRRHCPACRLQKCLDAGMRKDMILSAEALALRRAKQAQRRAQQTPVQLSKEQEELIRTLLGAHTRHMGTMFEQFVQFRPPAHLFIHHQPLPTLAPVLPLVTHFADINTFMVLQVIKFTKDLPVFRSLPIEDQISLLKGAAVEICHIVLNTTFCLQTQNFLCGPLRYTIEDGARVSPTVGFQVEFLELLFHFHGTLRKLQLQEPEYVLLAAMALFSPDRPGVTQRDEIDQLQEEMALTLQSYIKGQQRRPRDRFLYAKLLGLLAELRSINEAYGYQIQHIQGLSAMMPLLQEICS", "assay": "qHTS assay to identify small molecule antagonists of the constitutive androstane receptor (CAR) signaling pathway (AID 1224838; active = well fitted curve in the direction sought with a large enough effect in the repeat runs; inconclusive = weak or mixed curves; inactive = no such curve, though single readings can be large; an effect the other way counts as inactive or inconclusive; also: nearly all actives have a fitted effect of over 40% in size)", "method_in_brief": "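CITCO-stimulated (50 nM final) HepG2 cells stably transfected with hCAR and CYP2B6-2.2kb luciferase were exposed to compounds at 15 concentrations for 24 h at 37 C/5% CO2. A luciferase reagent was added and luminescence recorded after 30 min.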"}, "[2]": {"assay": "qHTS assay to identify small molecule antagonists of the estrogen related receptor signaling pathway with the pleiotropic PPARgamma coactivator (PGC) from Tox21 10K library - cell viability counter screen (AID 1224840; active = well fitted cell-killing curve with a large enough effect in the repeat runs, not every such curve was filed as active; inconclusive = weak or mixed curves, or effect the other way; inactive = no such curve, though single readings can be large or run the other way; also: nearly all actives have a fitted effect of over 40% in size)", "method_in_brief": "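Viability counter screen, PGC/ERR cells: 17.5 h compound exposure at 37 C, CellTiter-Fluor fluorescence endpoint.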"}, "[3]": {"assay": "qHTS assay to identify small molecule agonists of the hypoxia (HIF-1) signaling pathway (AID 1224846; active = well fitted activation curve with a large enough effect in the signal ratio in the repeat runs, not every such curve was filed as active; inconclusive = weak or mixed curves; the % refers to the signal ratio)", "conditions": "HRE-bla ME-180 cells, beta-lactamase ratio, 17 h; activation: at 76.8 µM (top of the series) unless noted", "method_in_brief": "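In ME-180 cells bearing an HRE-bla construct, 17 h treatment with DMSO-dissolved compounds at 37C was followed by CCF4-AM loading to quantify reporter induction.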"}, "[4]": {"assay": "qHTS assay to identify small molecule agonists of H2AX - cell viability counter screen (AID 1224847); also: nearly all actives have a fitted effect of over 30% in size", "method_in_brief": "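Cells plated first: CHO-K1, 1000 per well in 10% FBS medium, incubated overnight at 37C. Then 15-point compound titration added (final DMSO 0.76%) for 3 hr. Finally CellTiter-Glo added and luminescence read.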"}, "[5]": {"target": "Nuclear receptor subfamily 1 group I member 3 (Homo sapiens) (UniProt Q14994)", "assay": "qHTS assay to identify small molecule agonists of the constitutive androstane receptor (CAR) signaling pathway (AID 1224839; active = well fitted curve in the direction sought with a large enough effect in the repeat runs; inconclusive = weak or mixed curves; inactive = no such curve, though single readings can be large; an effect the other way counts as inactive or inconclusive; also: nearly all actives have a fitted effect of over 15% in size)", "method_in_brief": "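HepG2-CYP2B6-hCAR cells, 2500/well, 4 h pre-incubation; compounds 15 conc.; PK11195 0.75 uM final; 24 h, 37 C/5% CO2; ONE-Glo luciferase read.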"}, "[6]": {"target": "Thyrotropin receptor (Homo sapiens) (UniProt P16473)", "sequence (P16473 whole entry, looked up)": "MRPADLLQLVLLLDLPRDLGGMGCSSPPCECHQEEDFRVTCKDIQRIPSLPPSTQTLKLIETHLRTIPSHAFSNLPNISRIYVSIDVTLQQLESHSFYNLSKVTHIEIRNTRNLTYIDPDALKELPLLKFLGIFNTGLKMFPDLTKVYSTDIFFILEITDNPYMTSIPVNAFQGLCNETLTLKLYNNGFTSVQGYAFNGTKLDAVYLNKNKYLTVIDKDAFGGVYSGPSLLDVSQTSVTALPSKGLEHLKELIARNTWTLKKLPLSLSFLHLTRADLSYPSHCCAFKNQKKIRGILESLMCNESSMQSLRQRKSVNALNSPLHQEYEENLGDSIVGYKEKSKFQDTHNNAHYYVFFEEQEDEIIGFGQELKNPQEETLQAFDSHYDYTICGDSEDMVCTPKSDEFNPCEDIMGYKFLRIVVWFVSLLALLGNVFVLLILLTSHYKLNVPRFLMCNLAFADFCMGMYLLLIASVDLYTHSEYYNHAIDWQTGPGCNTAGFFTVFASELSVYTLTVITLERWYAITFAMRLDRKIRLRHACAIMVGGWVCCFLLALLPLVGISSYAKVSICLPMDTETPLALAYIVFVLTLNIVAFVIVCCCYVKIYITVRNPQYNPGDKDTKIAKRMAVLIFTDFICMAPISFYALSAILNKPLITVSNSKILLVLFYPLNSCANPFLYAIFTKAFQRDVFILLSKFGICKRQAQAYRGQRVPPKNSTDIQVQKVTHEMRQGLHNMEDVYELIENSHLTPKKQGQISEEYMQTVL", "assay": "qHTS assay to identify small molecule agonists of the thyroid stimulating hormone receptor (TSHR) signaling pathway (AID 1224843); also: nearly all actives have a fitted effect of over 45% in size; as to activation: % is scaled to controls: 0 for no effect and ±100 for the full control effect", "conditions": "TSHR-HEK293 cells, cAMP HTRF, agonist mode, 30 min; activation: at 92.4 µM (top of the series) unless noted", "method_in_brief": "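Agonist activity read as cAMP rise via d2/cryptate HTRF competition, 1 h room-temperature detection, in HEK293 cells expressing TSHR. Fifteen-point titrations, each run in triplicate, with a 30 min room-temperature incubation beforehand.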"}, "[7]": {"assay": "qHTS assay to identify small molecule agonists of the hypoxia (HIF-1) signaling pathway - cell viability counter screen (AID 1224844); also: nearly all actives have a fitted effect of over 50% in size", "method_in_brief": "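Same wells as the HIF-1 reporter screen; ME-180 cells carrying HRE-bla, 17 hr treatment at 37C; CellTiter-Glo luminescence read after 30 min at room temperature.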"}, "[8]": {"assay": "qHTS assay to identify small molecule agonists of H2AX (AID 1224845; active = well fitted activation curve with a large enough effect in the signal ratio in the repeat runs, not every such curve was filed as active; inconclusive = weak or mixed curves; the % refers to the signal ratio)", "conditions": "CHO-K1 phospho-H2AX Ser139 HTRF, 3 h; activation (H2AX phosphorylation): at 154 µM (top of the series) unless noted", "method_in_brief": "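Phospho-H2AX Ser139 measured by HTRF (ex 320 nm; em 665 and 620 nm) after 24 hr antibody incubation. Compounds, 15 concentrations, 0.76% DMSO, were applied to CHO-K1 cells for 3hr at 37C before lysis.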"}}, "note": "Values joined by “and” are separate entries in the source; they are usually repeats but may differ in a detail not shown here. Equal values may be shown once. Inconclusive means that the source gave no clear call. Such entries were picked first, then a sample of the others. For part of these data: A potency beside an inconclusive call is a rough fit, not a confirmed value. Some compounds were tested as several samples or in several runs, with calls that do not always agree. Active and inactive are the calls of the source. Unless noted, calls follow the shape of the full dose curve. Potency is read from the fitted curve at half-maximal effect; tags tell the direction and shape of the fitted curve or compound fluorescence and quenching."}
{"smiles": "Cc1ccc(N=CN(C)C=Nc2ccc(C)cc2C)c(C)c1", "values": [{"measurement": "Potency", "setting": "[1]", "value": "inconclusive: 77.3 µM [inhibitor, single point] and inconclusive: 30.6 µM [inhibitor, single point]"}, {"measurement": "Potency", "setting": "[2]", "value": "inconclusive: 61.1 µM [cytotoxic]"}, {"measurement": "Potency", "setting": "[3]", "value": "inconclusive: 55.2 µM and inconclusive: 54.9 µM [single point]"}, {"measurement": "Potency", "setting": "[4]", "value": "inconclusive: 127 µM [cytotoxic, single point]"}]}
{"smiles": "CC(COc1ccc(Oc2ccccc2)cc1)Oc1ccccn1", "note": "(stereo not given)", "values": [{"measurement": "Potency", "setting": "[1]", "value": "inactive"}, {"measurement": "Potency", "setting": "[5]", "value": "active: 54.4 µM"}, {"measurement": "Potency", "setting": "[6]", "value": "inconclusive: 24.3 µM [inhibitor]"}, {"measurement": "Potency", "setting": "[4]", "value": "inconclusive: 101 µM [cytotoxic, single point]"}]}
{"smiles": "CC(C)Nc1ccc(Nc2ccccc2)cc1", "values": [{"measurement": "Potency", "setting": "[1]", "value": "inconclusive: 76.6 µM [inhibitor, single point]"}, {"measurement": "Potency", "setting": "[2]", "value": "active: 43.1 µM and inconclusive: 68.6 µM [cytotoxic, single point]"}, {"measurement": "Potency", "setting": "[6]", "value": "inconclusive: 43.1 µM [falling, partial curve]"}, {"measurement": "activation", "setting": "[6]", "value": "inconclusive: 24.2%"}, {"measurement": "Potency", "setting": "[7]", "value": "inconclusive: 54.7 µM [cytotoxic, single point] and inconclusive: 54.9 µM [cytotoxic]"}, {"measurement": "Potency", "setting": "[8]", "value": "inconclusive: 39.9 µM [falling, partial curve] and inconclusive: 50.5 µM [falling, partial curve]"}, {"measurement": "Potency", "setting": "[3]", "value": "inconclusive: 48.8 µM [falling, partial curve] and inconclusive: 49 µM [falling, partial curve]"}]}
